From article PMC9911399, “Two distinct binding modes provide the RNA-binding protein RbFox with extraordinary sequence specificity” come the findings set out here.

Changes are numbered by the printed parent chain; changes in the protein carry UniProt numbers. The list shows a part of the results.

T1: RBFOX1 RRM RbFoxmut (Fox-RRM*) (Homo sapiens, UniProt Q9NWB1 109-208, R118D;E147R;N151S;E152T)
T1 sequence: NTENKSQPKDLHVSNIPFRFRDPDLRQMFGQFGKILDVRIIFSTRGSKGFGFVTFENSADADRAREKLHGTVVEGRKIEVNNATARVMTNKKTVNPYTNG

B1: GUAAUUG (DNA:RNA)
RNA: GGGAGACCGGAAUUCAGAUUGUCCGUAAUUGUUAAAUCCCGUCGUAGCCACCA
DNA 1: CAATCTGAATTCCGGTCTCCC
DNA 2: TGGTGGCTACGACGGGATT
B2: CUUAAAG (DNA:RNA)
RNA: B1 RNA with G25C, A27U, U29A, U30A
DNA 1: CAATCTGAATTCCGGTCTCCC
DNA 2: TGGTGGCTACGACGGGATT
B3: CGGCGAC (DNA:RNA)
RNA: GGGAGACCGGAAUUCAGAUUGUCCCGGCGACUUAAAUCCCGUCGUAGCCACCA
DNA 1: CAATCTGAATTCCGGTCTCCC
DNA 2: TGGTGGCTACGACGGGATT
B4: UUAAGAC (DNA:RNA)
RNA: B3 RNA with C25U, G26U, G27A, C28A
DNA 1: CAATCTGAATTCCGGTCTCCC
DNA 2: TGGTGGCTACGACGGGATT
B5: UAUGACG (DNA:RNA)
RNA: B1 RNA with G25U, U26A, A27U, A28G, U29A, U30C
DNA 1: CAATCTGAATTCCGGTCTCCC
DNA 2: TGGTGGCTACGACGGGATT
B6: GUAAUCC (DNA:RNA)
RNA: B1 RNA with U30C, G31C
DNA 1: CAATCTGAATTCCGGTCTCCC
DNA 2: TGGTGGCTACGACGGGATT
B7: UGAUCCG (DNA:RNA)
RNA: B1 RNA with G25U, U26G, A28U, U29C, U30C
DNA 1: CAATCTGAATTCCGGTCTCCC
DNA 2: TGGTGGCTACGACGGGATT
B8: CCUUCCA (DNA:RNA)
RNA: B3 RNA with G26C, G27U, C28U, G29C, A30C, C31A
DNA 1: CAATCTGAATTCCGGTCTCCC
DNA 2: TGGTGGCTACGACGGGATT
B9: ACACCGA (DNA:RNA)
RNA: B3 RNA with C25A, G26C, G27A, G29C, A30G, C31A
DNA 1: CAATCTGAATTCCGGTCTCCC
DNA 2: TGGTGGCTACGACGGGATT

The assay has as its target T1, RBFOX1 RRM RbFoxmut (Fox-RRM*). Description: EMSA; HiTS-Eq, 1 nM pool, 10 min; buffer printed only for the single-RNA assays: 10 mM Tris pH 7.5, 150 mM NaCl, 3.4 mM EDTA, 0.001% NP-40, 30 C. Particulars: tags: His6 N-terminal (pET28a); label: 5' 32P. Summed up:
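A pool of RNA with 7 randomized nucleotides, 5′-radiolabelled and with DNA-annealed flanks, was equilibrated at 1 nM for 10 min in 50 µL with purified RbFox RRM, wild type or mutant, across increasing protein concentrations. Free RNA was separated by 8% native PAGE, excised, reverse-transcribed, barcoded by PCR and sequenced. Relative association constants were obtained from read-count changes of each RNA species versus the control reaction and normalised to the cognate motif.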
A general note: Mobility shift assays separate free from complexed probe on a gel.
Take B1: the binding signal is 0.116 KA relative to UGCAUGU. In the case of B2 it was 0.0894 KA relative to UGCAUGU. The value for B3 was 0.0855 KA relative to UGCAUGU. In the case of B4 it was 0.0787 KA relative to UGCAUGU; in that of B5, 0.0814 KA relative to UGCAUGU.

Consider B6, for which the binding signal was 0.0644 KA relative to UGCAUGU. On to B7, for which the binding signal was 0.0824 KA relative to UGCAUGU. The value for B8 was 0.0644 KA relative to UGCAUGU; that for B9 was 0.0798 KA relative to UGCAUGU.
